Test results from the supplement of paper PMC2702839.
Counter-ions that a name gives are not always drawn. This is one part of the list.

System: Schistosoma mansoni schistosomula
Assay: phenotypic hit in primary schistosomula screen (any phenotype vs DMSO control) (binary (1 = hit, 0 = no phenotype)); higher = active (phenotype induced)
Conditions: 1 µM; time (d): 7

Phenotypic hit, inactive:
CC(C)CCC[C@@H](C)[C@H]1CC[C@H]2[C@@H]3CC[C@H]4CC(=O)CC[C@]4(C)[C@H]3CC[C@]12C [cholestan-3-one] 0
CC(=O)O[C@H]1C[C@@H](O)C(C)(C)[C@@H]2C[C@@H](OC(C)=O)[C@]3(C)[C@H](CC[C@@]4(C)[C@@H](c5ccoc5)OC(=O)[C@H]5O[C@@]534)[C@@]12C [3-deacetylkhivorin] 0
NC(=O)N1c2ccccc2CC(=O)c2ccccc21 [oxcarbazepine] 0
C/C=C(/C)C(=O)O[C@H]1Cc2c(ccc3ccc(=O)oc23)OC1(C)C [selinidin] 0
CC(=O)OCC(=O)[C@@]1(O)[C@H](OC(C)=O)C[C@H]2[C@@H]3CCC4=CC(=O)C=C[C@]4(C)[C@@]3(F)[C@@H](O)C[C@@]21C [triamcinolone diacetate] 0
O=c1cc(-c2ccc(O)cc2)oc2cc(O[C@@H]3O[C@H](CO)[C@@H](O)[C@H](O)[C@H]3O)cc(O)c12 [cosmosiin] 0
Cc1c(NC(C)C)c(=O)n(-c2ccccc2)n1C [ramifenazone] 0
COc1c(C(=O)O)ccc2c1CCC(C)(C)O2 [dihydro-beta-tubaic acid] 0
CC(C[N+](C)(C)C)OC(N)=O (centres undefined) [Bethanechol chloride] 0
COc1ccc([C@@H]2Sc3ccccc3N(CCN(C)C)C(=O)[C@@H]2OC(C)=O)cc1 [diltiazem hydrochloride] 0
Cc1cn([C@H]2C[C@H](N=[N+]=[N-])[C@@H](CO)O2)c(=O)[nH]c1=O [zidovudine [azt]] 0
COc1ccc(-c2c(O)c3cc4c(c(CC=C(C)C)c3oc2=O)OC(C)(C)CC4)cc1 [dihydrolonchocarpenin] 0
COC(=O)c1c(C)c2c(c(C)c1O)OC(=O)c1c(C)c(Cl)c(O)c(Cl)c1O2 [leoidin] 0
Cc1ccc(C)c(OCCCC(C)(C)C(=O)O)c1 [gemfibrozil] 0
O=C(O)c1cc(O)c2c(c1)C(=O)c1cc(O)cc(O)c1C2=O [emodic acid] 0
O=C(CCCN1CCC(O)(c2ccc(Cl)cc2)CC1)c1ccc(F)cc1 [Haloperidol] 0
NCCC(=O)c1ccccc1N [kynuramine] 0
COc1cc2c(cc1OC)[C@@H]1Cc3ccc(OC)c(OC)c3CN1CC2 [tetrahydropalmatine] 0
COc1cc2c(cc1OC)C1C(=O)c3c(cc4c(c3O)C=CC(C)(C)O4)OC1CO2 (stereo not drawn) [beta-toxicarol] 0
NCC(=O)CCC(=O)O [aminolevulinic acid hydrochloride] 0
NC(=O)c1ccc[n+]([C@@H]2O[C@H](COP(=O)([O-])OP(=O)(O)OC[C@H]3O[C@@H](n4cnc5c(N)ncnc54)[C@H](O)[C@@H]3O)[C@@H](O)[C@H]2O)c1 [nadide] 0
COc1c2ccoc2cc2oc(C)cc(=O)c12 [visnagin] 0
C[C@@H]1CC[C@@]2(OC1)O[C@H]1C[C@H]3[C@@H]4CC[C@@H]5CC(=O)CC[C@]5(C)[C@H]4CC[C@]3(C)[C@H]1[C@@H]2C [smilagenone] 0
COc1ccc(CN(CCN(C)C)c2ncccn2)cc1 [thonzylamine hydrochloride] 0
CCCCCC(=O)Cc1cc(O)cc(O)c1C(=O)Oc1cc(CC(=O)CCCCC)c(C(=O)O)c(OC)c1 [arthonioic acid] 0
CN1C(C(=O)Nc2ccccn2)=C(O)c2ccccc2S1(=O)=O [piroxicam] 0
COCCOC(=O)C1=C(C)NC(C)=C(C(=O)OC(C)C)C1c1cccc([N+](=O)[O-])c1 (centres undefined) [Nimodipine] 0
NCCS [Cysteamine hydrochloride] 0
C[C@H]1C/C=C/[C@H]2[C@H](O)[C@](C)(O)[C@@H](C)[C@H]3[C@H](Cc4ccccc4)NC(=O)[C@]32[C@H](O)/C=C/[C@](C)(O)C1 [cytochalasin r] 0
CC1(C)[C@@H](O)CC[C@]2(C)[C@H]3C(=O)C=C4[C@@H]5C[C@@](C)(C(=O)O)CC[C@]5(C)CC[C@@]4(C)[C@]3(C)CC[C@@H]12 [enoxolone] 0
Nc1nc(O)c2ncn([C@H]3C[C@H](O)[C@@H](CO)O3)c2n1 [deoxyguanosine] 0
Nc1nc(=O)c2c([nH]1)NCC(CNc1ccc(C(=O)N[C@@H](CCC(=O)O)C(=O)O)cc1)=N2 [dihydrofolic acid] 0
COc1ccc(CC(=O)c2ccc(O)cc2O)cc1 [ononetin] 0
COC1=C(OC)C(=O)C(C/C=C(\C)CC/C=C(\C)CC/C=C(\C)CC/C=C(\C)CC/C=C(\C)CC/C=C(\C)CC/C=C(\C)CC/C=C(\C)CC/C=C(\C)CCC=C(C)C)=C(C)C1=O [coenzyme q10] 0
CC(C)(C)NCC(O)c1ccc(O)c(CO)c1 (centres undefined) [Albuterol hemisulfate] 0
Cc1c(OCC(F)(F)F)ccnc1C[S+]([O-])c1nc2ccccc2[nH]1 (centres undefined) [lansoprazole] 0
Cn1c(=O)c2c(ncn2C)n(C)c1=O [Caffeine] 0
CCCC(CCC)C(=O)O [Valproic acid sodium] 0
CC(C)=CCc1c2c(c(O)c3c(=O)c(O)c(-c4ccccc4)oc13)C=CC(C)(C)O2 [sericetin] 0
Cc1onc(-c2ccccc2)c1C(=O)N[C@@H]1C(=O)N2[C@@H]1SC(C)(C)[C@@H]2C(=O)O [oxacillin sodium] 0
OCC(O)CN1CCN(c2ccccc2)CC1 (centres undefined) [dropropizine] 0
COc1cc2c(cc1OC)C(=O)OC2 [metameconine] 0
CC[C@H](/C=C/[C@@H](C)[C@H]1CC[C@H]2[C@@H]3CCC4=CC(=O)CC[C@]4(C)[C@H]3CC[C@]12C)C(C)C [stigmasta-4,22-dien-3-one] 0
COC1=CC(=O)C[C@@H](C)[C@]12Oc1c(Cl)c(OC)cc(OC)c1C2=O [griseofulvin] 0
CC1(C)O[C@H]2[C@H](O)C[C@](O)(C(N)=O)C[C@H]2O1 [quinamide isopropylidene] 0
COc1c2c(cc3occ(-c4ccc5c(c4)OCO5)c(=O)c13)OC(C)(C)C=C2 [methyl robustone] 0
COc1ccc(-c2coc3cc(O)cc(O)c3c2=O)cc1 [biochanin a] 0
CC1(C)S[C@@H]2[C@H](N3C(=O)[C@@H](c4ccccc4)NC3(C)C)C(=O)N2[C@H]1C(=O)O [hetacillin potassium] 0
CCOC(=O)C1=C(C)NC(C)=C(C(=O)OC)C1c1cccc([N+](=O)[O-])c1 (centres undefined) [Nitrendipine] 0
CC(=O)O[C@H]1C[C@@H](OC(C)=O)C(C)(C)C2CC(=O)[C@]3(C)C(CC[C@@]4(C)[C@H](C(=O)O)OC(=O)C5OC543)[C@]21C (some centres undefined) [deacetoxy (7)-7-oxokhivorinic acid] 0
CC1(C)OCC(C2OC(=O)C(O)=C2O)O1 (centres undefined) [ascorbic acid acetonide] 0
NCC1OC(OC2C(N)CC(N)C(OC3OC(CO)C(O)C(N)C3O)C2O)C(N)C(O)C1O (centres undefined) [becanamycin sulfate] 0
CCn1cc(C(=O)O)c(=O)c2cc(F)c(N3CCNCC3)cc21 [norfloxacin] 0
CC(=O)O[C@H]1CC[C@]2(C)[C@H]3C(=O)C=C4[C@@H]5[C@@H](C)[C@H](C)CC[C@]5(C(=O)O)CC[C@@]4(C)[C@]3(C)CC[C@H]2C1(C)C [11-oxoursolic acid acetate] 0
CC(C)=CCc1c(O)cc2occ(-c3ccc4c(c3)OCO4)c(=O)c2c1O [derrubone] 0
C=C1[C@H]2CC[C@@]3(C)[C@H](c4ccoc4)OC(=O)C[C@]13O[C@H]1C[C@H](O)C(C)(C)[C@H](CC(=O)OC)[C@]12C [3-deoxy-3beta-hydroxyangolensic acid methyl ester] 0
CC(CN1c2ccccc2Sc2ccccc21)N(C)C (centres undefined) [Promethazine hydrochloride] 0
NS(=O)(=O)c1cc2c(cc1C(F)(F)F)NC(Cc1ccccc1)NS2(=O)=O (centres undefined) [bendrofumethiazide] 0
CC(C)[C@@H]1CC[C@@H](C)C[C@H]1OC(=O)c1ccccc1 [menthyl benzoate] 0
COc1cc(N)c(Cl)cc1C(=O)NC1CCN(Cc2ccccc2)CC1 [clebopride maleate] 0
S=P(N1CC1)(N1CC1)N1CC1 [thiotepa] 0
CC(=O)O[C@H]1CC[C@]2(C)[C@H]3CC=C4[C@@H]5CC(C)(C)CC[C@]5(C(=O)O)CC[C@@]4(C)[C@]3(C)CC[C@H]2C1(C)C [oleanolic acid acetate] 0
Cc1cc(O)cc(=O)o1 [4-hydroxy-6-methylpyran-2-one] 0
COC(=O)[C@@H]1OC(=O)C2OC23[C@@]1(C)CCC1[C@]2(C)C(C[C@@H](O)[C@]13C)C(C)(C)[C@H](OC(C)=O)C[C@@H]2OC(C)=O (some centres undefined) [desacetyl (7)khivorinic acid, methyl ester] 0
